Out of some 45,000 compounds screened, about 65 (0.1%) were called active. Calls come from the whole dose curve; as a rule, active = well fitted activation curve with a large enough effect; inconclusive = small, poorly fitted or top-dose-only effect; inactive = no such curve, though single readings can be large or run the other way. The list shows a part of the results.
Each molecule was assayed against Galactocerebrosidase (Homo sapiens) (UniProt P54803) (assay: A Novel Cell-Based Assay to Identify Small Molecules for B -Galactocerebrosidase). Details: 145M-Twi-hGALC-G270D cells (Twitcher mouse brain line with human GALC G270D), HMU-beta-Gal fluorescence, 48 h; series mostly up to 57.5 µM; activation: at the top concentration.
Sequence of UniProt P54803 (P54803 whole entry, looked up): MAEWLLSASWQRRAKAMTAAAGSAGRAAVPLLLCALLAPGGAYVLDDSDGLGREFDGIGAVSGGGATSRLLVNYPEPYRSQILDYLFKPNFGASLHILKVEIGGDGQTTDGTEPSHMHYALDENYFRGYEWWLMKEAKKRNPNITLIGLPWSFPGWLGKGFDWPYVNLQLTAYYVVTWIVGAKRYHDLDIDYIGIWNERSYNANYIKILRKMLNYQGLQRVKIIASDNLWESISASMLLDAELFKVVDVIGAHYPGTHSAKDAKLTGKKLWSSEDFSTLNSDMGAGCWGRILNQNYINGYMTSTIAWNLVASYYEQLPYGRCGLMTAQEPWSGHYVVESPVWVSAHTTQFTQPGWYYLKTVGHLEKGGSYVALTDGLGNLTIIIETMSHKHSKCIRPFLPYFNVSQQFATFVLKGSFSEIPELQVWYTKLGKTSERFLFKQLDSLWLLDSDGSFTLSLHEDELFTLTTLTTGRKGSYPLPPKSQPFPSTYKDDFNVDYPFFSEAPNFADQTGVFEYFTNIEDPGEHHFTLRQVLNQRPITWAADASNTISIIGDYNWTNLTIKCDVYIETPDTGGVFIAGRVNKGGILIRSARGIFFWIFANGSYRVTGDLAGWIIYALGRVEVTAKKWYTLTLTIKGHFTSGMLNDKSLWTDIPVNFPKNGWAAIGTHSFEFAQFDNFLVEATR
How it was run: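 Brain-derived Twitcher mouse 145M-Twi cells stably expressing human GALC-G270D or wild-type GALC, treated live, then residual GALC activity read by fluorescence of HMU-b-Gal substrate (0.1 mM final) in citrate-phosphate buffer pH 5.2 with sodium taurocholate. Signal increase indicates enhancement.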
Note: 0% is about no effect; nearly all actives have a fitted effect of over 65% in size.

activation, inactive:
CC(=O)Nc1c(C)nn(-c2ccccc2)c1N1CCC(C(=O)NCc2ccc(Cl)cc2)CC1 -3.16%
Cc1cc(C)cc(N2CC(c3nc(-c4ccccc4C)no3)CC2=O)c1 (stereo not given) -4.07%
CCOC(=O)c1ccc(NC(=O)CN(c2ccc(C)cc2)S(=O)(=O)c2c(C)noc2C)cc1 -7.08%
Cc1nc2c(C(=O)NCCc3ccc(Cl)cc3)cnn2c(C)c1Cc1c(F)cccc1Cl -15.3%
Cc1cccc(NC(=O)Cn2c(=O)n(-c3ccccc3Cl)c(=O)c3c(C)c(C(=O)N(C)C)sc32)c1 -1.67%
CCOC(=O)c1ccc(CN(Cc2ccccc2)S(=O)(=O)c2ccc(C)cc2)cc1 -5.61%
COc1ccc(CCC(=O)NC2CC(=O)N(c3ccc(C)cc3)C2)cc1 (stereo not given) -7.52%
CCCCOC(=O)c1ccc(Nc2ncnc3[nH]ncc23)cc1 -21.5%
Cc1cccc(C(=O)Nc2ccc(-c3nc4ccccc4s3)cc2Cl)c1 -14.3%
COc1ccc2oc(=O)cc(CN3CCN(c4ccc(F)cc4)CC3)c2c1 -39.7%
CCCCNC(=O)C(CC)Sc1nnc(-c2cccc(F)c2)c(-c2cccc(F)c2)n1 (stereo not given) -7.59%
Cc1ccccc1S(=O)Cc1ccc(C(=O)N2CCN(c3cccc(C)c3C)CC2)o1 (stereo not given) -8.09%
Cc1ccc2onc(CC(=O)N3CCN(c4ccc(F)cc4)CC3)c2c1 -8.13%
CC(C)CC(=O)N1c2nc(C(C)C)nn2C2(CCCCC2)[C@@H]2CCCC[C@@H]21 -11.7%
Cc1ccc(-c2c(CN3CCN(c4cccc(C)c4)C(C)C3)csc2C)cc1 (stereo not given) -10.8%
Cc1cc(C)c(NC(=O)Cn2cc(S(=O)(=O)Cc3ccccc3F)c3ccccc32)c(C)c1 -0.167%
Cc1c(Cl)cccc1NC(=O)CSc1ncc2c(n1)-c1ccccc1N(C)S2(=O)=O -8.35%
CN(CCCNC(=O)c1cc2c(Cl)nc3ccccc3c2s1)Cc1ccccc1 -19.2%
CCOc1ccc(CCNC(=O)c2cnc3sc(N(CC)CC)nn3c2=O)cc1OCC 8.55%
Cc1cccc(C)c1OCC(=O)Nc1ncn[nH]1 -14.8%
CCN(CC)CCNC(=O)c1c(C)oc2ncnc(N3CCOCC3)c12 -3.56%
COC(=O)/C=C\C(=O)OC -11.1%
COC(=O)c1c(NC(=O)c2cc3ccccc3c(=O)o2)sc2c1CCCC2 -18.2%
O=C(NCCc1ccccc1)c1ccc2c(c1)N(Cc1ccc(F)cc1)C(=O)c1ccccc1S2(=O)=O -8.35%
CC(C)c1ccc(NC(=O)c2cc3sc(Cl)cc3n2C)cc1 -4.06%
Cc1cccc(N(CC(O)Cn2c3ccccc3c3ccccc32)S(=O)(=O)c2ccc(F)cc2)c1 (stereo not given) -13.7%
COc1ccc(CCNC(=O)c2ccc(Nc3nc4ccccc4n4nnnc34)cc2)cc1OC 2.36%
CC(=O)c1cccc(NC(=O)C(C)n2c(=O)cc(C)c3c(C)nn(-c4ccccc4)c32)c1 (stereo not given) -15.5%
COc1ccc(NC(=O)Cn2nnc(C(=O)NCCc3ccccc3)c2N)cc1 -10%
COc1ccccc1NC(=O)N(Cc1nnc2n1CCCCC2)c1ccc(F)cc1 -9.57%
COc1ccc(OC)c(CNS(=O)(=O)c2ccc3c(c2)CCCN3C(C)=O)c1 -9.88%
CCOc1ccc(NC(=O)c2c(NCc3cccnc3)sc3c2CCCC3)cc1 -11.9%
O=S(=O)(Nc1ccc(Br)cc1F)c1ccc2nc(-c3ccccc3)[nH]c2c1 2.66%
COc1cccc(N2CCN(C(=O)c3cccc(-n4c(C)nc5cccnc54)c3)CC2)c1 -15.8%
CCOC(=O)c1ccc(CN(Cc2ccc(F)cc2)S(=O)(=O)c2ccc(F)c(C(=O)Nc3ccc(Cl)cc3F)c2)cc1 -6.77%
Cc1cc(C)cc(NC(=O)N2CCC3(CC2)Oc2ccccc2C(=O)N3Cc2ccccc2F)c1 -21%
O=C(CCS(=O)(=O)c1cccc2nonc12)Nc1c(F)cccc1F -21.3%
CC1CCc2c(sc3nc(-c4cc5cc(Br)ccc5oc4=O)[nH]c(=O)c23)C1 (stereo not given) -19.8%
COc1ccc(-c2nnc(SCC(=O)Nc3cccc(C(F)(F)F)c3)nc2-c2ccc(OC)cc2)cc1 -5.99%
COc1ccc(CCn2c(=O)c3cccnc3n(CC(=O)Nc3ccc(C)c(F)c3)c2=O)cc1OC -20.3%
C=Cc1ccc(Cn2c(C(=O)O)c(CNC3CCCCC3)c3ccc(C)cc32)cc1 -1.01%
O=C(COc1ccccc1)NCCc1csc(-c2ccc(Cl)cc2)n1 -5.57%
COc1cccc(Cn2c(CNS(=O)(=O)c3ccc(F)c(Cl)c3)nc3cccnc32)c1 -0.664%
O=C(c1ccc2c(c1)OCCO2)N(Cc1cccnc1)c1nc2c(Cl)cccc2s1 -33.5%
CCOc1ccc(OCC)c(NC(=O)C2CCN(S(=O)(=O)c3c(C)noc3/C=C/c3ccccc3F)CC2)c1 -3.74%
CC(C)COc1ccc(C(=O)Nc2cc3nn(-c4ccccc4)nc3cc2Cl)cc1 -9.32%
CCc1nn2c(=O)cc(COc3ccc(/C=C(\C#N)C(=O)Nc4ccc(F)cc4)cc3OC)nc2s1 -6.32%
CN1C(=O)Cc2cc(S(=O)(=O)N3CCN(c4ccc(Cl)cc4)CC3)ccc21 -13.2%
CCOC(=O)c1[nH]c2c(c1Cc1ccccc1C)C(=O)CC(c1cc(OC)ccc1OC)C2 (stereo not given) -19.7%
CCOc1ccccc1CNC(=O)c1cc(-c2ccc(Cl)s2)nc2ccccc12 -9.26%
CCOC(=O)c1ccc(NC(=O)C2CCN(S(=O)(=O)c3ccc4c(c3)CCCC(=O)N4)CC2)cc1 -36.7%
CCn1c2ccccc2c2nnc(SCC(=O)Nc3ccccc3OC)nc21 -2.31%
CCc1ccc(NC(=O)Cn2c(=O)n(CCC(=O)N3CCc4ccccc4C3)c(=O)c3ccccc32)cc1 -5.84%
O=S(=O)(NCC(c1cccs1)S(=O)(=O)c1ccccc1)c1ccc(F)cc1 (stereo not given) -13%
COc1ccc(C(=O)c2cn(Cc3ccccc3F)c3cc4c(cc3c2=O)OCO4)cc1 -2.54%
O=c1cc(-c2ccccc2)n2c(SCc3ccc(Cl)cc3)nnc2[nH]1 -17.6%
CCOC(=O)c1ccc(N2C(=O)c3n[nH]c(C)c3C2c2cccc(Br)c2)cc1 (stereo not given) -9.68%
COc1ccc(CNC(=O)Cn2nnc(-c3ccc(C(F)(F)F)cc3)n2)cc1 -6.66%
CC(C)C(=O)NCC(c1ccc2c(c1)OCO2)N1CCN(c2ccccc2F)CC1 (stereo not given) -7.2%
COc1ccc(-n2c3c(cc(-c4nc(-c5ccc(C)cc5)cs4)c2=O)C(=O)CC(C)(C)C3)cc1 -15.6%
